Measurements: ChEMBL document CHEMBL5606458, “ASAP - ZIKV NS2B-NS3 protease fluorescence single point” (2024)
About 160 (5.9%) of roughly 2,700 compounds showed an effect of 50% or more. The list shows a part of the results.

Target: Nonstructural protein 3 (Zika virus) (UniProt A0A024AXB9)
[1] = PRVABC59, Concentration 15.0 uM, Number of replicates 1.0
[2] = PRVABC59, Concentration 50.0 uM, Number of replicates 1.0
[3] = PRVABC59, Concentration 10.0 uM, Number of replicates 1.0

Sequence of UniProt A0A024AXB9 (A0A024AXB9 as listed by the source): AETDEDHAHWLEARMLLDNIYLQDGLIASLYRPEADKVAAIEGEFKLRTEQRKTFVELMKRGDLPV

Structure (SMILES): COc1ccc(NC(=O)c2cc(Cl)ccc2NS(=O)(=O)c2ccc(Oc3ccccc3Cl)cc2)c([N+](=O)[O-])c1
- inhibition [1]: 23.8%

Structure (SMILES): O=Cc1ccc(N2CCC(C(=O)Nc3ccc(I)cc3F)CC2)cc1
- inhibition [2]: 23.8%

Structure (SMILES): Cc1cnccc1NC(=O)c1ccc(Cn2cccn2)o1
- inhibition (PRVABC59, Concentration 49.5 uM, Number of replicates 2.0, Standard deviation 2.869943793578149 %): -3.37%
- inhibition (PRVABC59, Concentration 99.01 uM, Number of replicates 2.0, Standard deviation 4.685622862463218 %): -2.42%
- inhibition (PRVABC59, Concentration 198.0 uM, Number of replicates 2.0, Standard deviation 2.8508744783111757 %): -2.11%

Structure (SMILES): Cc1cc(I)ccc1NC(=O)C1CCN(c2ccc(C=O)cc2)CC1
- inhibition [2]: 13.7%

Structure (SMILES): Cn1cncc1CN1CCC(c2c[nH]c3cccnc23)CC1
- inhibition (PRVABC59, Concentration 49.5 uM, Number of replicates 2.0, Standard deviation 0.36428498974851165 %): -6.38%
- inhibition (PRVABC59, Concentration 99.01 uM, Number of replicates 2.0, Standard deviation 0.23301104362860023 %): -5.77%
- inhibition (PRVABC59, Concentration 198.0 uM, Number of replicates 2.0, Standard deviation 0.16409217976879822 %): -5.19%

Structure (SMILES): O=C(c1cc(Cl)ccc1NS(=O)(=O)c1ccc(Oc2ccccc2Cl)cc1)N1CCC(=C2c3ccc(Cl)cc3CCc3cccnc32)CC1
- inhibition [1]: 6.18%

Structure (SMILES): CC(C)(C)N(Cc1ccc(Br)cc1)C(=O)C1CCN(c2ccc(C=O)cc2)CC1
- inhibition [2]: 28.5%

Structure (SMILES): Cc1nn(CC(=O)N[C@H]2CCS(=O)(=O)C2)cc1C1CCNCC1
- inhibition (PRVABC59, Concentration 49.5 uM, Number of replicates 2.0, Standard deviation 5.344569156352791 %): -4.22%
- inhibition (PRVABC59, Concentration 99.01 uM, Number of replicates 2.0, Standard deviation 4.944451379615651 %): -1.67%
- inhibition (PRVABC59, Concentration 198.0 uM, Number of replicates 2.0, Standard deviation 3.753762379719695 %): 2.58%

Structure (SMILES): CN(C)c1ccccc1CNC(=O)C1CCN(c2ccc(C=O)cc2)CC1
- inhibition [3]: 25.6%

Structure (SMILES): Cc1cc(CO)c2cccc(C[C@H](NC(=O)Cc3c[nH]c4ccccc34)C(=O)O)c2n1
- inhibition (PRVABC59, Concentration 49.95 uM, Number of replicates 2.0, Standard deviation 0.6925039676538037 %): -0.44%
- inhibition (PRVABC59, Concentration 99.9 uM, Number of replicates 2.0, Standard deviation 0.7426851276507157 %): 7.22%

Structure (SMILES): O=Cc1ccc(N2CCC(C(=O)N3CCN(C(=O)[C@H]4COc5ccccc5O4)CC3)CC2)cc1
- inhibition [2]: 22.2%

Structure (SMILES): CNC(=O)c1ccc2n1CCN(S(=O)(=O)c1cnn(CC3CC3)c1)[C@@H]2C
- inhibition (PRVABC59, Concentration 49.5 uM, Number of replicates 2.0, Standard deviation 1.040561182661946 %): -1.94%
- inhibition (PRVABC59, Concentration 99.01 uM, Number of replicates 2.0, Standard deviation 0.20003029173185544 %): -2.17%
- inhibition (PRVABC59, Concentration 198.0 uM, Number of replicates 2.0, Standard deviation 0.2141737625677472 %): -2.84%

Structure (SMILES): COc1ccc(NC(C)=O)cc1NC(=O)C1CCN(c2ccc(C=O)cc2)CC1
- inhibition [2]: 20%

Structure (SMILES): Cc1cc(CO)c2cccc(Cc3ccccc3NC(=O)c3nc(-c4ccccc4)oc3C(F)(F)F)c2n1
- inhibition (PRVABC59, Concentration 49.95 uM, Number of replicates 2.0, Standard deviation 1.8373680900098652 %): 5.06%
- inhibition (PRVABC59, Concentration 99.9 uM, Number of replicates 2.0, Standard deviation 1.2469667752869535 %): 9.26%

Structure (SMILES): O=C(Nc1ccc(F)cc1Br)c1cc(Cl)ccc1NS(=O)(=O)c1ccc(Oc2ccccc2Cl)cc1
- inhibition [1]: 25%

Structure (SMILES): CC[C@H](C)N(Cc1ccccc1)C(=O)C1CCN(c2ccc(C=O)cc2)CC1
- inhibition [3]: 26.6%

Structure (SMILES): Cn1cc(NC(=O)c2ccccc2C(F)(F)F)c(-c2ccccc2CO)n1
- inhibition (PRVABC59, Concentration 49.5 uM, Number of replicates 2.0, Standard deviation 1.1938974234704913 %): -0.442%
- inhibition (PRVABC59, Concentration 99.01 uM, Number of replicates 2.0, Standard deviation 1.523480341882225 %): 1.31%
- inhibition (PRVABC59, Concentration 198.0 uM, Number of replicates 2.0, Standard deviation 2.1372444344514228 %): 2.85%

Structure (SMILES): CCN(CC)CCN(CCN(CC)CC)C(=O)c1cc(Cl)ccc1NS(=O)(=O)c1ccc(Oc2ccccc2Cl)cc1
- inhibition [1]: 12.8%

Structure (SMILES): CN(Cc1ccc(N2CCOCC2)cc1)C(=O)c1cc(Cl)ccc1NS(=O)(=O)c1ccc(Oc2ccccc2Cl)cc1
- inhibition [1]: 9.72%

Structure (SMILES): CN1CCN(C[C@H]2CCCN(C(=O)c3cc(Cl)ccc3NS(=O)(=O)c3ccc(Oc4ccccc4Cl)cc3)C2)CC1
- inhibition [1]: 1.15%

Structure (SMILES): c1cc(CN2CCC[C@H](c3c[nH]c4ccccc34)C2)c2[nH]ccc2c1
- inhibition (PRVABC59, Concentration 50.0 uM, Number of replicates 2.0, Standard deviation 4.969152467416127 %): 2.39%
- inhibition (PRVABC59, Concentration 100.0 uM, Number of replicates 2.0, Standard deviation 4.272227774773933 %): 5.68%
- inhibition (PRVABC59, Concentration 200.0 uM, Number of replicates 2.0, Standard deviation 6.212735946585718 %): 0.564%

Structure (SMILES): O=Cc1ccc(N2CCC(C(=O)Nc3cccc(N4CCOCC4)c3)CC2)cc1
- inhibition [2]: 9.23%

Structure (SMILES): O=C(NCc1coc(-c2ccccc2)n1)c1cc(Cl)ccc1NS(=O)(=O)c1ccc(Oc2ccccc2Cl)cc1
- inhibition [1]: 45.4%

Structure (SMILES): O=Cc1ccc(N2CCC(C(=O)Nc3c(Cl)cccc3[N+](=O)[O-])CC2)cc1
- inhibition [2]: 21.7%

Structure (SMILES): c1ccc2c([C@H]3CCN(Cc4cc(-c5ccncc5)[nH]n4)C3)c[nH]c2c1
- inhibition (PRVABC59, Concentration 49.5 uM, Number of replicates 2.0, Standard deviation 2.8555238815628745 %): 1.13%
- inhibition (PRVABC59, Concentration 99.01 uM, Number of replicates 2.0, Standard deviation 3.4240925808481126 %): 6.82%
- inhibition (PRVABC59, Concentration 198.0 uM, Number of replicates 2.0, Standard deviation 2.908364523505892 %): 15.2%

Structure (SMILES): CN(C)CC[C@H]1CCCCN1C(=O)C1CCN(c2ccc(C=O)cc2)CC1
- inhibition [2]: 24.8%

Structure (SMILES): Cc1cc(CO)c2cccc(Cc3ccccc3NC(=O)COc3cccc(CN)c3)c2n1
- inhibition (PRVABC59, Concentration 49.95 uM, Number of replicates 2.0, Standard deviation 1.5421673483547123 %): 8.84%
- inhibition (PRVABC59, Concentration 99.9 uM, Number of replicates 2.0, Standard deviation 1.3284012301057624 %): 21.3%

Structure (SMILES): O=C(NCC1(c2ccccc2)CCCC1)c1cc(Cl)ccc1NS(=O)(=O)c1ccc(Oc2ccccc2Cl)cc1
- inhibition [1]: 30.9%

Structure (SMILES): COc1cncc(-c2ccccc2C(=O)Nc2cnn(C)c2)c1
- inhibition (PRVABC59, Concentration 49.5 uM, Number of replicates 2.0, Standard deviation 4.9130935342676665 %): -2.29%
- inhibition (PRVABC59, Concentration 99.01 uM, Number of replicates 2.0, Standard deviation 3.43930152401436 %): 0.018%
- inhibition (PRVABC59, Concentration 198.0 uM, Number of replicates 2.0, Standard deviation 1.7993335938018762 %): 0.6%

Structure (SMILES): O=Cc1ccc(N2CCC(C(=O)NCc3ccc4c(c3)OCCO4)CC2)cc1
- inhibition [3]: 17%

Structure (SMILES): CCN(C(=O)C1CCN(c2ccc(C=O)cc2)CC1)C1C2CC3CC(C2)CC1C3 (stereo not drawn)
- inhibition [2]: 26.7%

Structure (SMILES): CCCc1nn(C)c(C(N)=O)c1NC(=O)c1cc(Cl)ccc1NS(=O)(=O)c1ccc(Oc2ccccc2Cl)cc1
- inhibition [1]: 20.9%

Structure (SMILES): CC(C)c1cccc(C(C)C)c1NC(=O)c1cc(Cl)ccc1NS(=O)(=O)c1ccc(Oc2ccccc2Cl)cc1
- inhibition [1]: 29.3%

Structure (SMILES): CN(C[C@H](O)[C@@H](O)[C@H](O)[C@H](O)CO)C(=O)c1cc(Cl)ccc1NS(=O)(=O)c1ccc(Oc2ccccc2Cl)cc1
- inhibition [1]: 3.12%

Structure (SMILES): O=Cc1ccc(N2CCC(C(=O)Nc3ccc4c(c3)OC(F)(F)O4)CC2)cc1
- inhibition [2]: 19.3%

Structure (SMILES): C[C@H](NC(=O)C1CCN(c2ccc(C=O)cc2)CC1)c1ccc(S(C)(=O)=O)cc1
- inhibition [3]: 23.1%

Structure (SMILES): C[C@@H](Cc1ccc(C(F)(F)F)cc1)NC(=O)C1CCN(c2ccc(C=O)cc2)CC1
- inhibition [3]: 14.8%

Structure (SMILES): O=C(c1cc(Cl)ccc1NS(=O)(=O)c1ccc(Oc2ccccc2Cl)cc1)N(CCc1ccccc1)C1CCCC1
- inhibition [1]: 16.7%

Structure (SMILES): Cc1ccc2c(c1)C(=O)NCCN2S(=O)(=O)c1ccc(Oc2ccccc2Cl)cc1
- inhibition (PRVABC59, Concentration 49.5 uM, Number of replicates 2.0, Standard deviation 4.7217937817636475 %): 3.32%
- inhibition (PRVABC59, Concentration 99.01 uM, Number of replicates 2.0, Standard deviation 1.4736147195350457 %): 1.38%
- inhibition (PRVABC59, Concentration 198.0 uM, Number of replicates 2.0, Standard deviation 0.7368073492308107 %): 0.577%

Structure (SMILES): Cc1cc(CO)c2cccc(CC(=O)N3CCC(CN)CC3)c2n1
- inhibition (PRVABC59, Concentration 49.95 uM, Number of replicates 2.0, Standard deviation 0.5547725606279245 %): 25.3%
- inhibition (PRVABC59, Concentration 99.9 uM, Number of replicates 2.0, Standard deviation 0.00508999060096365 %): 39.1%

Structure (SMILES): O=C(Nc1ccc(C(F)(F)F)cc1[N+](=O)[O-])c1cc(Cl)ccc1NS(=O)(=O)c1ccc(Oc2ccccc2Cl)cc1
- inhibition [1]: 28.1%

Structure (SMILES): COc1cc(CS(=O)(=O)CCc2ccc(F)cc2)nc(N2CCNCC2)n1
- inhibition (PRVABC59, Concentration 49.5 uM, Number of replicates 2.0, Standard deviation 5.345388786115782 %): -2.81%
- inhibition (PRVABC59, Concentration 99.01 uM, Number of replicates 2.0, Standard deviation 2.7752057703205737 %): 4.63%
- inhibition (PRVABC59, Concentration 198.0 uM, Number of replicates 2.0, Standard deviation 2.7033423590364065 %): 7.51%

Structure (SMILES): O=C(NCCn1cc([C@H]2CCOC2)cn1)c1cnn([C@H]2CCCNC2)c1
- inhibition (PRVABC59, Concentration 49.5 uM, Number of replicates 2.0, Standard deviation 2.425054936954433 %): -1.94%
- inhibition (PRVABC59, Concentration 99.01 uM, Number of replicates 2.0, Standard deviation 3.207528396546797 %): -2.16%
- inhibition (PRVABC59, Concentration 198.0 uM, Number of replicates 2.0, Standard deviation 3.920539297933569 %): -2.07%

Structure (SMILES): O=Cc1ccc(N2CCC(C(=O)N[C@H]3CCOc4ccc(F)cc43)CC2)cc1
- inhibition [2]: 6.75%

Structure (SMILES): CC(C)(C)c1cc(NC(=O)C2CCN(c3ccc(C=O)cc3)CC2)n(-c2ccccc2)n1
- inhibition [2]: 14.4%

Structure (SMILES): O=Cc1ccc(N2CCC(C(=O)NCCN3C(=O)CSC3=O)CC2)cc1
- inhibition [2]: 24.5%

Structure (SMILES): Cc1cc(CO)c2cccc(Cc3cccc(C(=O)NCc4ccc(C(N)=O)cc4)c3)c2n1
- inhibition (PRVABC59, Concentration 49.95 uM, Number of replicates 2.0, Standard deviation 1.793263436091943 %): -9.88%

Structure (SMILES): CN(Cc1csc(-c2ccccc2)n1)C(=O)c1cc(Cl)ccc1NS(=O)(=O)c1ccc(Oc2ccccc2Cl)cc1
- inhibition [1]: 22.3%

Structure (SMILES): O=Cc1ccc(N2CCC(C(=O)NC[C@@H](c3ccc(Cl)cc3)N3CCCC3)CC2)cc1
- inhibition [2]: 18.7%

Structure (SMILES): CC(C)CN1CCN(C(=O)C2CCN(c3ccc(C=O)cc3)CC2)[C@@H](C)C1=O
- inhibition [2]: 21.2%

Structure (SMILES): CN1CCC(N(C(=O)C2CCN(c3ccc(C=O)cc3)CC2)C2CCN(C)CC2)CC1
- inhibition [2]: 25%

Structure (SMILES): CC(C)c1cccc(C(C)C)c1NC(=O)C1CCN(c2ccc(C=O)cc2)CC1
- inhibition [2]: 22.1%
